Structures can show the parent of a compound that is named as a salt.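 Results reflect a 48-hour exposure of cells in 96-well plates to compound at five concentrations. Abbreviation: GI50, concentration required for 50% inhibition of growth.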 Calls of active or inactive are those of the source. No stated cut-off is given here; in the data, active = GI50 up to about 1.1 µM and inactive = higher. Numbered stars: 1 amine (or outer) side, 2 acyl side, 3 side chain; on linkers, the order of the positions; unused ones are H or OH. Square brackets hold non-standard residues; d marks the D form. Peptide text beside a SMILES is read from it. X3 = CC[C@H](C)[C@H](OC(=O)[C@@H](C)[C@@H](CC)N[*:1])C(=O)[*:2]; X4 = C[C@H](N[*:1])C(=O)C(C)(C)C(=O)[*:2]; NMeY = CN[C@@H](Cc1ccc(O)cc1)C(=O)O; NMeL = CN[C@@H](CC(C)C)C(=O)O; NMeV = CN[C@H](C(=O)O)C(C)C Bounds are passed on as bounds.

In the assay the test system is NCI-H322M. Kind of assay: NCI-60 cell line screen, 48 h.
`C/C(=C\[C@H]1C[C@@H]([C@@H]2CC[C@]34C[C@]23C=C[C@@H]2[C@@]3(C)CC=C5C[C@@H](c6ccccc6)OC[C@]5(C)[C@@H]3C[C@@H](O)[C@]24C)C(=O)O1)CO` [DICHAPETALIN A]: the GI50 was inactive: 8.28 µM.
Regarding `C[C@@H]1CC[C@@]2(OC1)O[C@H]1[C@@H](O)[C@H]3[C@@H]4CC[C@H]5C[C@@H](O[C@@H]6O[C@H](CO)[C@H](O[C@@H]7O[C@H](CO)C(O)[C@H](O[C@@H]8OC[C@@H](O)[C@H](O)[C@H]8O)[C@H]7O[C@@H]7O[C@H](CO)[C@H](O)[C@H](O[C@@H]8O[C@H](CO)[C@@H](O)[C@H](O)[C@H]8O)[C@H]7O)[C@H](O)[C@H]6O)[C@H](O)C[C@]5(C)[C@H]4CC[C@]3(C)[C@H]1[C@@H]2C` (stereo not given in full) [DIGITONIN], the GI50 was inactive: 3.3 µM.
The figure for `COc1cc(CC(C)C(C)Cc2ccc(O)c(OC)c2)ccc1O` (stereo not given) [DIHYDROGUAIARETIC ACID] is inactive: 21.2 µM; for `Oc1ccc(CCc2cc(O)cc(O)c2)cc1` [DIHYDRORESVERATROL] it is inactive: > 100 µM; for `O=C(NP(=O)(N1CC1)N1CC1)c1cc(I)ccc1I` [DIIODBENZOTEPH] it is inactive: > 87.9 µM.
`COc1ccc2c(=O)c(C)c(-c3ccccc3)oc2c1CN(C)C` [DIMEFLINE]: the GI50 is inactive: > 100 µM.
The result for `COc1cc(OC)c2c(c1)OC(c1ccccc1)CC2=O` (stereo not given) [DIMETHYLPINOCEMBRIN] reads inactive: > 10 µM; that for `C/C(=C(/C)c1ccc(O)cc1)c1ccc(O)cc1` [DIMETHYLSTILBESTROL], inactive: 87.3 µM; that for `Nc1ccc(C(=O)Nc2ccccc2N)cc1` [DINALINE], inactive: 46.2 µM.
The figure for `CC(C)(C)c1cc([N+](=O)[O-])cc([N+](=O)[O-])c1O` [DINOTERB] is inactive: > 10 µM.
The figure for `CN(C)CCOC(c1ccccc1)c1ccccc1` [DIPHENHYDRAMINE HYDROCHLORIDE] is inactive: > 100 µM; for `OCCN(CCO)c1nc(N2CCCCC2)c2nc(N(CCO)CCO)nc(N3CCCCC3)c2n1` [DIPYRIDAMOLE] it is inactive: 40.1 µM; for `CC(C)(S)C(N)C(=O)O` (stereo not drawn) [DL-PENICILLAMINE] it is inactive: > 100 µM.
As to `CC[C@H](C)[C@@H]1OC(=O)[C@@H](C)[C@@H](CC)NC(=O)[C@H](C)NC(=O)C(C)(C)C(=O)[C@H](C)NC(=O)[C@H](Cc2ccc(OC)cc2)N(C)C(=O)[C@H](C(C)C)N(C)C(=O)CNC(=O)[C@H](CC(C)C)N(C)C(=O)CNC1=O` [DOLASTATIN 11] (cyclo(A[X3]G[NMeL]G[NMeV][NMeY](Me)[X4])), the GI50 was active: 0.459 µM.
Turning to `CC1(C)CCc2c(ccc(C(=O)/C=C/c3ccc(O)cc3)c2O)O1` [DORSMANNIN A], the GI50 is inactive: 9.55 µM.
Turning to `O=C1c2ccccc2S(=O)(=O)c2cc(-c3nn[nH]n3)ccc21` [DOXANTRAZOLE], the GI50 is inactive: > 100 µM.
The figure for `CCCCCCCCCCCCCCCCCCOCC(COP(=O)([O-])OCC[N+](C)(C)C)OC` (stereo not given) [EDELFOSINE] is inactive: 46.8 µM.
The figure for `NCCCC(N)(C(=O)O)C(F)F` (stereo not given) [EFLORNITHINE] is inactive: > 5000 µM.
In the case of `Cc1c2cc[n+](C)cc2c(C)c2c1[nH]c1ccc(O)cc12` [ELLIPTINIUM ACETATE], the GI50 was inactive: 6.34 µM.
The figure for `CCCCCCCCCCCC1=C(O)C(=O)C=C(O)C1=O` [EMBELIN] is inactive: 7.41 µM; for `Cc1cc(O)c2c(c1)C(=O)c1cc(O)cc(O)c1C2=O` [EMODIN] it is inactive: 25.3 µM; for `CCn1cc(C(=O)O)c(=O)c2cc(F)c(N3CCNCC3)nc21` [ENOXACIN] it is inactive: > 100 µM.
The result for `Nc1ccccc1NC(=O)c1ccc(CNC(=O)OCc2cccnc2)cc1` [ENTINOSTAT] reads inactive: 1.47 µM; that for `Oc1cc(O)c2c(c1)O[C@H](c1cc(O)c(O)c(O)c1)[C@H](O)C2` [EPIGALLOCATECHIN], inactive: 45 µM.
The result for `O=CN/C=C/c1cc(O)ccc1O` [ERBSTATIN] reads inactive: > 100 µM.
Consider `CCCCCCCC/C=C\CCCCCCCCCCCC(=O)O` [ERUCIC ACID], for which the GI50 is inactive: 49.5 µM.
Turning to `O=C1OC2(c3ccccc31)c1cc(I)c(O)c(I)c1Oc1c2cc(I)c(O)c1I` [ERYTHROSINE], the GI50 was inactive: 6.08 µM.
As for `C[C@]12CC[C@@H]3c4ccc(O)cc4CC[C@H]3[C@@H]1CC[C@@H]2OC(=O)CCC1CCCC1` [ESTRADIOL CYPIONATE], the GI50 is inactive: 17.8 µM.
The result for `O=C(Cn1ccnc1[N+](=O)[O-])NCCO` [ETANIDAZOLE] reads inactive: > 100 µM; that for `CCOC(=O)Nc1ccc2c(c1)N(C(=O)CCN(CC)CC)c1ccccc1S2` [ETHACIZINE], inactive: 36.6 µM.
The figure for `CCOc1cc(C=O)ccc1O` [ETHYL VANILLIN] is inactive: > 100 µM; for `CCc1nc(N)nc(N)c1-c1ccc(Cl)c(Cl)c1` [ETOPRINE] it is inactive: 6.15 µM.
The figure for `CCc1ccc2c(c1)N(CC(C)CN(C)C)c1ccccc1S2` (stereo not given) [ETYMEMAZINE HYDROCHLORIDE] is inactive: 4.84 µM; for `C=C1C(=O)O[C@H]2[C@H]1[C@H](OC(=O)/C(C)=C\C)CC(=C)[C@@H]1[C@H](O)[C@H]3O[C@@]3(C)[C@@]12O` [EUPATUNDIN] it is inactive: > 100 µM.
`COc1c2ccoc2nc2c(OC)c(OCC(O)C(C)(C)O)ccc12` (stereo not given) [EVOXINE]: the GI50 is inactive: > 100 µM.
The figure for `O=C1c2ccccc2-[n+]2ccc3c([nH]c4ccccc43)c21` [FASCAPLYSIN CHLORIDE] is active: 0.612 µM.
The figure for `CC1=C(/C=C/C(C)=C/C=C/C(C)=C/C(=O)Nc2ccc(O)cc2)C(C)(C)CCC1` [FENRETINIDE] is inactive: 6.7 µM.
With `Oc1ccc(Cl)cc1Sc1cc(Cl)ccc1O` [FENTICLOR], the GI50 is inactive: 22.4 µM.
The result for `O=c1c(O)c(-c2ccc(O)c(O)c2)oc2cc(O)ccc12` [FISETIN] reads inactive: 18.2 µM; that for `O=C1CC(c2ccccc2)Oc2ccccc21` (stereo not given) [FLAVANONE], inactive: 93.3 µM.
`Nc1nc(=O)[nH]cc1F` [FLUCYTOSINE]: the GI50 is inactive: > 100 µM.
On to `CC(=O)[C@@]1(O)CC[C@H]2[C@@H]3C[C@H](C)C4=CC(=O)C=C[C@]4(C)[C@@]3(F)[C@@H](O)C[C@@]21C` [FLUOROMETHOLONE], for which the GI50 was inactive: > 100 µM.
On to `O=C(Nc1cccc(C(F)(F)F)c1)c1cc(Br)cc(Br)c1O` [FLUOROSALAN], for which the GI50 is inactive: 3.6 µM.
For the compound `O=c1[nH]cc(F)c(=O)[nH]1` [FLUOROURACIL], the GI50 was inactive: 22.5 µM.
Regarding `CC(C(=O)O)c1ccc(-c2ccccc2)c(F)c1` (stereo not given) [FLURBIPROFEN], the GI50 was inactive: > 100 µM.
`C[C@]12CCC(=O)C(O)=C1CC[C@@H]1[C@@H]2CC[C@]2(C)C(=O)CC[C@@H]12` [FORMESTANE]: the GI50 is inactive: > 100 µM.
`C1CN(P2(N3CC3)=NP(N3CC3)(N3CC3)=NP(N3CC3)(N3CC3)=N2)CCO1` (stereo not given) [FOTRETAMINE]: the GI50 is inactive: > 100 µM.
The result for `CC1=C2C(=O)O[C@@H](c3ccoc3)[C@]2(C)CCC1` [FRAXINELLONE] reads inactive: > 100 µM; that for `CC1=C2C(=O)O[C@@H](c3ccoc3)[C@]2(C)CCC1=O` [FRAXINELLONONE], inactive: > 100 µM.
The figure for `Cc1cc(C(=C2C=CC(=N)C=C2)c2ccc(N)cc2)ccc1N` [FUCHSIN, BASIC] is inactive: 4.41 µM.
The result for `O=C(O)/C=C/C(=O)O` [FUMARIC ACID] reads inactive: > 100 µM; that for `COc1ccc2c3c([nH]c2c1)[C@H](C=C(C)C)N1C(=O)[C@@H]2CCCN2C(=O)[C@@H]1C3` [FUMITREMORGIN], inactive: > 100 µM; that for `N=C(N)c1ccc(-c2ccc(-c3ccc(C(=N)N)cc3)o2)cc1` [FURAMIDINE HYDROCHLORIDE], inactive: 33.2 µM.
Take `CC(C)c1ccc(O)c(=O)cc1` [GAMMA-THUJAPLICIN]: the GI50 was inactive: 9.4 µM.
The figure for `COc1cc(-c2cc(=O)c3c(O)c(OC)c(OC)c(OC)c3o2)cc(OC)c1OC` [GARDENIN] is inactive: > 61.2 µM; for `C/C(=C\COc1ccc2ccc(=O)oc2c1)C1=CC(=O)C(C)(C)O1` [GEIPARVARIN] it is inactive: 3.17 µM; for `C=C1C[C@]23C[C@@]1(O)CC[C@H]2[C@@]12C=C[C@H](O)[C@@](C)(C(=O)O1)[C@H]2[C@@H]3C(=O)O` [GIBBERELLIN A3] it is inactive: > 100 µM.
The result for `CCCCCCCCCCCC/C=C\CC[C@@H](O)[C@H](O)CC[C@H](O)[C@@H]1CC[C@@H](CCCCCCCC2=C[C@H](C)OC2=O)O1` [GIGANTRIONENIN] reads inactive: 15.2 µM; that for `CC(C)=CCC[C@](C)(O[C@@H]1O[C@H](CO)[C@@H](O)[C@H](O)[C@H]1O)[C@H]1CC[C@]2(C)[C@@H]1[C@H](O)C[C@@H]1[C@@]3(C)CC[C@H](O)C(C)(C)[C@@H]3[C@@H](O[C@@H]3O[C@H](CO)[C@@H](O)[C@H](O)[C@H]3O)C[C@]12C` [GINSENOSIDE RG1], inactive: > 100 µM.
With `CC[C@](C)(O)C(=O)O[C@H]1C(=O)O[C@@H]2C[C@H]3C(C)=CC(=O)[C@@H](O)[C@]3(C)[C@H]3[C@@]4(O)OC[C@]32[C@@H]1[C@@H](C)[C@H]4O` [GLAUCARUBINONE], the GI50 was inactive: 2.12 µM.
Consider `COc1cc2c3c(c1O)C1(C=CC(=O)C=C1)CC3N(C)CC2` (stereo not given) [GLAZIOVINE], for which the GI50 was inactive: 9.86 µM.
Consider `CCCCCCCCCCCC(=O)OCC(O)CO` (stereo not given) [GLYCEROL MONOLAURATE], for which the GI50 was inactive: > 100 µM.
The figure for `O=C(NC1CCCCC1)NS(=O)(=O)c1ccc2c(c1)CCC2` [GLYHEXAMIDE] is inactive: > 100 µM.
The result for `O=C(O)CNCP(=O)(O)O` [GLYPHOSATE] reads inactive: > 100 µM; that for `COc1cc2c(c(O)c1OC)-c1c(cc(OC)c(OC)c1OC)CC(C)C(C)C2` (stereo not given) [GOMISIN K3], inactive: > 100 µM.

Source of the values: ChEMBL document CHEMBL1201862, “PubChem BioAssay data set” (2004).
